# Reference: the supplement of paper PMC8728848
# The list shows a part of the results.
# B1: Ficolin B (Rattus norvegicus), P57756 (protein)
# chain: MVLGSAALFVLSLCVTELTLHAADTCPEVKVLDLEGSNKLTILQGCPGLPGALGPKGEAGAKGDRGESGLPGHPGKAGPTGPKGDRGEKGVRGEKGDTGPSQSCATGPRTCKELLTRGYFLTGWYTIYLPDCRPLTVLCDMDTDGGGWTVFQRRIDGTVDFFRDWTSYKQGFGSQLGEFWLGNDNIHALTTQGTNELRVDLADFDGNHDFAKYSSFQIQGEAEKYKLILGNFLGGGAGDSLTSQNNMLFSTKDQDNDQGSSNCAVRYHGAWWYSDCHTSNLNGLYLRGLHKSYANGVNWKSWKGYNYSYKVSEMKVRLI
# Experiments:
# Assay in all cases: glycan array binding signal (z-score within array); higher = stronger binding
# Details in all cases: glycan notation: IUPAC condensed, linker removed
# [1] = molecular target: Fuc(a1-2)[GalNAc(a1-3)]Gal(b1-4)GlcNAc
# Outline: (§1)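 The binding signal is a Z-score computed within each array. Data were drawn from 3228 arrays in the Consortium for Functional Glycomics database, restricted to those with a known protein sequence. Scores were averaged over arrays of the same protein sequence at different concentrations or buffers, and over linkers, and negative values can be taken as non-binding.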
# [2] = molecular target: Fuc(a1-2)[GalNAc(a1-3)]Gal(b1-4)GlcNAc(b1-2)Man(a1-3)[GalNAc(a1-3)[Fuc(a1-2)]Gal(b1-4)GlcNAc(b1-2)Man(a1-6)]Man(b1-4)GlcNAc(b1-4)GlcNAc
# Outline: as §1
# [3] = molecular target: Fuc(a1-2)[GalNAc(a1-3)]Gal(b1-4)GlcNAc(b1-3)Gal(b1-4)GlcNAc
# Outline: as §1
# [4] = molecular target: Fuc(a1-2)[GalNAc(a1-3)]Gal(b1-4)GlcNAc(b1-3)Gal(b1-4)GlcNAc(b1-3)Gal(b1-4)GlcNAc
# Outline: as §1
# [5] = molecular target: Fuc(a1-2)[GalNAc(a1-3)]Gal(b1-4)[Fuc(a1-3)]GlcNAc
# Outline: as §1
# [6] = molecular target: Fuc(a1-2)[GalNAc(a1-4)]Gal(b1-4)GlcNAc
# Outline: as §1
# [7] = molecular target: Fuc(a1-2)[GalNAc(b1-3)]Gal
# Outline: as §1
# Fuc(a1-3)GlcNAc = molecular target: Fuc(a1-3)GlcNAc
# Outline: as §1
# [8] = molecular target: Fuc(a1-3)[Gal(b1-4)]Glc6S
# Outline: as §1
# [9] = molecular target: Fuc(a1-3)[Gal(b1-4)]GlcNAc
# Outline: as §1
# [10] = molecular target: Fuc(a1-3)[Gal(b1-4)]GlcNAc(b1-2)Man(a1-3)[Fuc(a1-3)[Gal(b1-4)]GlcNAc(b1-2)Man(a1-6)]Man(b1-4)GlcNAc(b1-4)GlcNAc
# Outline: as §1
# [11] = molecular target: Fuc(a1-3)[Gal(b1-4)]GlcNAc(b1-2)Man(a1-6)[Gal(b1-4)GlcNAc(b1-2)Man(a1-3)]Man(b1-4)GlcNAc(b1-4)GlcNAc
# Outline: as §1
# [12] = molecular target: Fuc(a1-3)[Gal(b1-4)]GlcNAc(b1-3)Gal(b1-3)[Fuc(a1-4)]GlcNAc
# Outline: as §1
# [13] = molecular target: Fuc(a1-3)[Gal(b1-4)]GlcNAc(b1-4)Gal(b1-4)[Fuc(a1-3)]GlcNAc
# Outline: as §1
# [14] = molecular target: Fuc(a1-3)[Gal(b1-4)]GlcNAc(b1-4)Gal(b1-4)[Fuc(a1-3)]GlcNAc(b1-4)Gal(b1-4)[Fuc(a1-3)]GlcNAc
# Outline: as §1
# [15] = molecular target: Fuc(a1-3)[Gal(b1-4)]GlcNAc6S
# Outline: as §1
# [16] = molecular target: Fuc(a1-3)[Gal3S(b1-4)]Glc6S
# Outline: as §1
# [17] = molecular target: Fuc(a1-3)[Gal3S(b1-4)]GlcNAc
# Outline: as §1
# [18] = molecular target: Fuc(a1-3)[Gal3S(b1-4)]GlcNAc6S
# Outline: as §1
# [19] = molecular target: Fuc(a1-3)[GalNAc(b1-4)]GlcNAc
# Outline: as §1
# [20] = molecular target: Fuc(a1-3)[Neu5Ac(a2-3)]Gal(b1-4)GlcNAc(b1-3)GalNAc
# Outline: as §1
# Fuc(a1-4)GlcNAc = molecular target: Fuc(a1-4)GlcNAc
# Outline: as §1
# Fuc(b1-3)GlcNAc = molecular target: Fuc(b1-3)GlcNAc
# Outline: as §1
# Gal(a1-2)Gal = molecular target: Gal(a1-2)Gal
# Outline: as §1
# Gal(a1-3)Gal = molecular target: Gal(a1-3)Gal
# Outline: as §1
# Gal(a1-3)Gal(b1-3)GlcNAc = molecular target: Gal(a1-3)Gal(b1-3)GlcNAc
# Outline: as §1
# Gal(a1-3)Gal(b1-4)Glc = molecular target: Gal(a1-3)Gal(b1-4)Glc
# Outline: as §1
# Gal(a1-3)Gal(b1-4)GlcNAc = molecular target: Gal(a1-3)Gal(b1-4)GlcNAc
# Outline: as §1
# [21] = molecular target: Gal(a1-3)Gal(b1-4)[Fuc(a1-3)]GlcNAc
# Outline: as §1
# [22] = molecular target: Gal(a1-3)Gal(b1-4)[Fuc(a1-3)]GlcNAc(b1-2)Man(a1-3)[Gal(a1-3)Gal(b1-4)[Fuc(a1-3)]GlcNAc(b1-2)Man(a1-6)]Man(b1-4)GlcNAc(b1-4)GlcNAc
# Outline: as §1
# Gal(a1-3)GalNAc = molecular target: Gal(a1-3)GalNAc
# Outline: as §1
# [23] = molecular target: Gal(a1-3)[Gal(a1-4)]Gal(b1-4)GlcNAc
# Outline: as §1
# Gal(a1-4)Gal(b1-4)Glc = molecular target: Gal(a1-4)Gal(b1-4)Glc
# Outline: as §1
# Gal(a1-4)Gal(b1-4)GlcNAc = molecular target: Gal(a1-4)Gal(b1-4)GlcNAc
# Outline: as §1
# [24] = molecular target: Gal(a1-4)Gal(b1-4)GlcNAc(b1-3)Gal(b1-4)Glc
# Outline: as §1
# Gal(a1-4)GlcNAc = molecular target: Gal(a1-4)GlcNAc
# Outline: as §1
# Gal(a1-6)Glc = molecular target: Gal(a1-6)Glc
# Outline: as §1
# Gal(b1-2)Gal = molecular target: Gal(b1-2)Gal
# Outline: as §1
binder,measurement,setting,value
B1,glycan array binding signal (z-score),[1],-0.213
same,glycan array binding signal (z-score),[2],0.306
same,glycan array binding signal (z-score),[3],-0.19
same,glycan array binding signal (z-score),[4],-0.124
same,glycan array binding signal (z-score),[5],-0.138
same,glycan array binding signal (z-score),[6],-0.185
same,glycan array binding signal (z-score),[7],-0.203
same,glycan array binding signal (z-score),Fuc(a1-3)GlcNAc,-0.124
same,glycan array binding signal (z-score),[8],-0.199
same,glycan array binding signal (z-score),[9],-0.22
same,glycan array binding signal (z-score),[10],-0.214
same,glycan array binding signal (z-score),[11],-0.166
same,glycan array binding signal (z-score),[12],-0.073
same,glycan array binding signal (z-score),[13],-0.044
same,glycan array binding signal (z-score),[14],-0.137
same,glycan array binding signal (z-score),[15],-0.142
same,glycan array binding signal (z-score),[16],-0.09
same,glycan array binding signal (z-score),[17],-0.2
same,glycan array binding signal (z-score),[18],-0.167
same,glycan array binding signal (z-score),[19],-0.214
same,glycan array binding signal (z-score),[20],0.186
same,glycan array binding signal (z-score),Fuc(a1-4)GlcNAc,-0.089
same,glycan array binding signal (z-score),Fuc(b1-3)GlcNAc,-0.164
same,glycan array binding signal (z-score),Gal(a1-2)Gal,-0.184
same,glycan array binding signal (z-score),Gal(a1-3)Gal,-0.202
same,glycan array binding signal (z-score),Gal(a1-3)Gal(b1-3)GlcNAc,0.157
same,glycan array binding signal (z-score),Gal(a1-3)Gal(b1-4)Glc,0.072
same,glycan array binding signal (z-score),Gal(a1-3)Gal(b1-4)GlcNAc,-0.206
same,glycan array binding signal (z-score),[21],-0.224
same,glycan array binding signal (z-score),[22],-0.13
same,glycan array binding signal (z-score),Gal(a1-3)GalNAc,-0.188
same,glycan array binding signal (z-score),[23],-0.187
same,glycan array binding signal (z-score),Gal(a1-4)Gal(b1-4)Glc,-0.24
same,glycan array binding signal (z-score),Gal(a1-4)Gal(b1-4)GlcNAc,0.164
same,glycan array binding signal (z-score),[24],-0.169
same,glycan array binding signal (z-score),Gal(a1-4)GlcNAc,-0.202
same,glycan array binding signal (z-score),Gal(a1-6)Glc,-0.231
same,glycan array binding signal (z-score),Gal(b1-2)Gal,-0.123
